Experimental data taken from patent US20250121006A1, “THERAPEUTIC COMBINATIONS COMPRISING ANTI-STEAP2 CHIMERIC ANTIGEN RECEPTOR T CELLS” (AstraZeneca AB, priority 2023, published 2025).

Experiments:
[1] = system: LuCaP73 PDX model; assay: Enzalutamide treatment of LuCaP73 PDX model (tumor volume, body weight); assay type: in vivo, mice
Experimental: . Enzalutamide was administered orally, once a day. […] .

[2] = system: LuCaP70 PDX model; assay: Enzalutamide treatment of LuCaP70 PDX model (tumor volume, body weight); conditions: 10, 30, 50, or 80 mg/kg
[3] = system: STEAP2 membrane staining in LuCaP70 tumors; assay: STEAP2 immunohistochemistry (IHC) in LuCaP70 tumors; assay type: in vivo, mice
Description: FIGS. 5D-5E show STEAP2 expression levels in LuCaP70 tumors based on immunohistochemistry (IHC) using an anti-STEAP2 antibody and calculated intensity of tumor membrane staining and percentage of cells stained (H-score; FIG. 5D) and by percent membrane staining in tumors (FIG. 5E) (* indicates p<0.05). […].

[4] = system: AR and STEAP2 expression in LuCaP73 tumors; assay: LuCaP73 tumor expression of AR and STEAP2 after enzalutamide; assay type: in vivo, mice; conditions: 10 mg/kg, day 42, normalized to GAPDH
Experimental: FIGS. 3A-3B show LuCaP73 tumor expression of androgen receptor (AR; FIG. 3A) and STEAP2 (FIG. 3B) at day 42 following treatment with vehicle or 10 mg/kg enzalutamide (Enza). AR and STEAP2 expression levels were normalized to GAPDH levels.

[5] = system: LuCaP86.2 PDX model; assay: Enzalutamide treatment of LuCaP86.2 PDX model (tumor volume, body weight); conditions: 10, 30, 50, or 80 mg/kg, vs vehicle
[6] = system: AR, STEAP2 and KLK3 expression in LuCaP70 tumors; assay: LuCaP70 tumor expression of AR, STEAP2 and KLK3 after enzalutamide; assay type: in vivo, mice; conditions: 10, 30, 50, or 80 mg/kg, day 21
[7] = system: prostate-specific antigen (PSA), LuCaP73 tumors; assay: Serum PSA by ELISA, LuCaP73 PDX model; conditions: Day 42, all dosages (10, 30, 50, 80 mg/kg)

- Tumor expression of androgen receptor (AR) [4]: increased
- Tumor expression of androgen receptor (AR) [6]: significant dose-dependent increase
Structure (SMILES): CNC(=O)c1ccc(N2C(=S)N(c3ccc(C#N)c(C(F)(F)F)c3)C(=O)C2(C)C)cc1F [enzalutamide]
- Tumor volume ([1]; LuCaP73 PDX, 10, 30, 50, or 80 mg/kg orally once a day, up to 42 days, vs vehicle): dose-dependent decrease in tumor volume
- Body weight ([1]; mice implanted with LuCaP73, 10, 30, 50, or 80 mg/kg): slightly improved
- Body weight [2]: improvement in body weight
- STEAP2 1+ distribution of membrane score ([3]; 80 mg/kg): approximately 2%
- STEAP2 2+ distribution of membrane score ([3]; 80 mg/kg): approximately 52%
- STEAP2 3+ distribution of membrane score ([3]; 80 mg/kg): approximately 46%
- STEAP2 H-score (IHC) ([3]; 80 mg/kg): significant effect (p<0.05)
- STEAP2% tumor distribution of membrane score ([3]; across doses): dose dependent effect
- Tumor expression of STEAP2 [4]: increased
- Body weight [5]: no significant variations in body weight
- Tumor expression of KLK3 [6]: did not have significant changes in expression levels
- Tumor expression of STEAP2 [6]: significant dose-dependent increase
- Serum PSA [7]: significant decreased in serum PSA
